# Assay results reported in paper PMC6919601, “Identification of Plasmodium dipeptidyl aminopeptidase allosteric inhibitors by high throughput screening” (PLoS ONE, 2019).
# “And” between values parts separate entries of the source, which are not always exact repeats. Identical values can stand only once. The whole screen tested about 110,000 compounds, of which about 230 (0.21%) showed an effect of 50% or more. Some of the results follow.
# Target: DPAP1 (Plasmodium falciparum, UniProt Q8IIJ9)
# Assay: primary screen, percent inhibition; read by cleavage of a fluorogenic dipeptide substrate; higher = more effect of the substance
# Design: species or system P. falciparum D10 trophozoite lysates; single well
# 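Further: 30 min substrate incubation versus DMSO and 10 µM JCP410 controls.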
# DPAP1, sequence (Q8IIJ9 whole entry, looked up): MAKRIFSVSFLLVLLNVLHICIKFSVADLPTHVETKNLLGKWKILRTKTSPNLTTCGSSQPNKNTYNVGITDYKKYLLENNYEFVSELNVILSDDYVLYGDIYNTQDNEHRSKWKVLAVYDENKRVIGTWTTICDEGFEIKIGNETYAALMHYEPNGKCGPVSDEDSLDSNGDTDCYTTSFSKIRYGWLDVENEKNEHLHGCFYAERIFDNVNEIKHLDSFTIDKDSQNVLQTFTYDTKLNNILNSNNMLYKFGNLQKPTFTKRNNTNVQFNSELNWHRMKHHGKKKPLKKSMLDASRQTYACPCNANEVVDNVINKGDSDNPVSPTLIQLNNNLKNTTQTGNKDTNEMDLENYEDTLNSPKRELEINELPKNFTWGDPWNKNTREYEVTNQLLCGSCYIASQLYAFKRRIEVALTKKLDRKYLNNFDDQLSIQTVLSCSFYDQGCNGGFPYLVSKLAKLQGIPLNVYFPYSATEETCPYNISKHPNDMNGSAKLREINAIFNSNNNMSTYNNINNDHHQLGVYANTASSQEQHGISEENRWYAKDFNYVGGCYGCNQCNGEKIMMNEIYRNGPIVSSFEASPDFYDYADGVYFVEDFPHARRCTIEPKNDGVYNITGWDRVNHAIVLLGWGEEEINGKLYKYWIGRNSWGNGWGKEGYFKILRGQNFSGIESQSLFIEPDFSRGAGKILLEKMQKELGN
row,SMILES,% Inhibition @ 10 uM
1,O=C(NCc1cccnc1)c1ccc(CN2CC(=O)N3CCCCC3C2=O)cc1 (centres unmarked),-3.88%
2,Cc1ccc(/C=C(/C#N)c2nc(-c3ccccc3)cs2)cc1,-3.79%
3,CCOC(=O)N1CCC(NCc2c(C(=O)O)n(Cc3ccccc3F)c3ccccc23)CC1,3.54%
4,O=C(Nc1cccnc1Cl)c1cc(-c2ccc(O)cc2)on1,-2.65%
5,CCc1nc2ccc(C(=O)NCCCN3CCN(Cc4ccccc4)CC3)cc2nc1CC,-4.18%
6,CC(=O)c1c(C)n(-c2ccc(Br)cc2)c2ccc(O)cc12,2.92%
7,O=C(N/C(=C/c1ccccc1)c1nc2ccccc2[nH]1)c1ccccc1,2.54%
8,C=CCc1cccc2cc(C(=O)Nc3ccccc3OC)c(=O)oc12,-2%
9,NC(=O)CSc1nc2c(oc3ccccc32)c(=O)n1Cc1ccco1,-1.71%
10,CC(=O)c1ccc(NC(=O)C2CCCCC2)cc1,-1.52%
11,CC(C)N(CC#CC(C)(C)O)Cc1ccccc1,-7.32%
12,COc1ccc(NC(=O)CN(c2ccc(F)cc2)S(C)(=O)=O)cc1,-5.27%
13,Cc1c(CC(=O)O)c(=O)oc2c(C)c3occ(-c4ccc(F)cc4)c3cc12,-2.92%
14,CS(=O)(=O)N(CC(=O)Nc1cc(Cl)cc(Cl)c1)c1cccc2ccccc12,-1.35%
15,CCCCCC(=O)Nc1sc2c(c1C(N)=O)CCC(C)C2 (centres unmarked),-8.72%
16,CC(O)Cn1c2ccc(Cl)cc2c2cc(Cl)ccc21 (centres unmarked),-2.54%
17,O=C(Nc1nc(-c2ccc(Cl)cc2)cs1)c1cccnc1,5.05%
18,COc1ccc(CNCc2cc(F)ccc2F)cc1OC,-8.78%
19,Cc1ccc(C)c(Cn2c(=O)n(CCCC(=O)NCc3ccco3)c(=O)c3sccc32)c1,1.23%
20,CC(=O)N1CCc2c(sc3c2c(=O)n(Cc2ccccc2)c(=O)n3CC(=O)NCC2CCCO2)C1 (centres unmarked),0.0579%
21,COc1cccc(N2C(=O)CC(N3CCOCC3)C2=O)c1 (centres unmarked),-4.43%
22,CCOC(=O)c1nnn(-c2nonc2N)c1-c1cc(OC)c(OC)c(OC)c1,-1.82%
23,CCCN(CCC)S(=O)(=O)c1ccc(NC(=O)c2cccs2)cc1,-0.185%
24,COc1ccc(CSCc2ccccc2)cc1C(=O)O,-1.82%
25,O=C1CC(N2CCN(c3ccccc3)CC2)C(=O)N1c1ccc2c(c1)OCCO2 (centres unmarked),-6.43%
26,Cc1c2cnn(CC(=O)NC(C)C34CC5CC(CC(C5)C3)C4)c(=O)c2c(C)n1Cc1ccccc1F (centres unmarked),2.84%
27,COc1ccc(N2C(=O)C(Cl)=C(Nc3ccccc3F)C2=O)cc1,1.57%

row,SMILES,% Inhibition @ 10 uM
1,CCC(N)C12CC3CC(CC(O)(C3)C1)C2 (centres unmarked),2.59%
2,CCc1c(C)nc2cc(-c3cccc(Br)c3)nn2c1O,-0.891%
3,O=C(NCc1ccco1)C1CCN(S(=O)(=O)c2ccccc2)CC1,-1.92%
4,COc1ccc(CN2CCCC(C(=O)N3CCc4ccccc4C3)C2)cc1OC (centres unmarked),-1.17%
5,O=C(Cc1ccccc1)NCc1ccc(Cl)cc1,-6.12%
6,COc1cc(NC(=O)c2ccc(OC(F)F)cc2)cc(OC)c1,0.431%
7,Cc1ccc(C)c(CNc2ccc3c[nH]nc3c2)c1,-5.2%
8,Cc1cc(C)c(S(=O)(=O)NCCO)c(C)c1,0.774%
9,COC(=O)c1cc(S(=O)(=O)NCc2ccccc2OC)cn1C,-1.06%
10,CC1(C)CC(O)=C/C(=N/CCN2CCN(C(=O)Cc3ccc(Cl)cc3)CC2)C1,-2.16% and -2.98%
11,CCC(=O)C1=C(c2ccc(OC)c(OC)c2)N(C(=O)CC)n2c(C)nnc2S1,-4.11%
12,O=C1OC(c2cncc(Br)c2)=N/C1=C/c1ccc(Cl)c(Cl)c1,-3.44%
13,CC1(C)CC(=O)Nc2cc(-c3ccccc3)n(-c3ccccc3)c2C1,4.01%
14,Cc1c(CNCCc2c[nH]c3ccccc23)c(C(=O)O)c(C)n1Cc1ccccc1F,2.99%
15,CCOc1ccc(CCNCc2c(C(=O)O)n(Cc3ccccc3F)c3ccccc23)cc1OCC,-3.21%
16,Cc1[nH]c2ccc(C(=O)N3CCC(C)CC3)cc2c1C,-4.54%
17,Cc1cc(C(=O)Nc2cnn(Cc3ccccc3C)c2)no1,-13%
18,CCCC(=O)Nc1nc2n(n1)C(c1ccc(OC)cc1)C=C(c1ccccc1)N2 (centres unmarked),1.62%
19,Cc1c(C(=O)N(C)c2cccc(Cl)c2)cnn1-c1ccccc1,-3.45%
20,COc1ccc(N(CC(=O)Nc2c(C)cccc2C)S(C)(=O)=O)c(OC)c1,-7.23%
21,COc1ccc(CNCc2cccn2-c2sc(C)c(C)c2C(=O)O)cc1,4.83%
22,CC(=O)Nc1nn2c(-c3ccccc3C)nnc2s1,-1.72%
23,O=C(NCc1ccccn1)C1CCN(c2nnc(N3CCCC3=O)s2)CC1,-4.68%
24,CCOc1ccccc1C(=O)N(Cc1ccccc1)c1ccccn1,1.37%
25,CN(CC(=O)N1CCC(Cc2ccccc2)CC1)S(=O)(=O)c1ccc2[nH]c3c(c2c1)CCCC3,-3.05%
26,CCn1ccnc(N2CCCCC2)/c1=N/c1ccc(OC)cc1,-3.77%
27,COc1ccc2c(c1)c(=O)cc(-c1ccccc1)n2C,0.843%

row,SMILES,% Inhibition @ 10 uM
1,COc1ccc(NCN2C(=O)S/C(=C/c3ccc(F)cc3)C2=O)c(OC)c1,-0.171%
2,CC(C)CC(NC(=O)c1cccc(NC(=O)N2CCN(CC(=O)N3CCCC3)CC2)c1)C(=O)NCC#N (centres unmarked),3.66%
3,OC(CNCc1ccccc1)C12CC3CC(CC(C3)C1)C2 (centres unmarked),1.88%
4,COc1ccc(-c2csc(-c3cc4cc(OC)ccc4oc3=O)n2)cc1,1.74%
5,CN1CCC(N[C@H]2CC[C@H](O)CC2)CC1,-5.11%
6,Cc1nc(-c2ccccc2)nc(/N=C/N(C)C)c1-c1cc(C)c2c(C)nc(-c3ccccc3)nc2n1,1.26%
7,N#CCCn1c(=S)n(CCC#N)c2ccccc21,-5.28%
8,CCCCN(C)CCNC(=O)c1cc2cc3cc(OC)ccc3nc2s1,83.9%
9,O=C(O)C1C2C=CC(C2)C1C(=O)NCc1ccccc1 (centres unmarked),4.8%
10,CCOc1ccc(/C=c2\sc3nc(-c4ccc(C)cc4)nn3c2=O)cc1OC,0.222%
11,OC1CCCN(Cc2ccccc2F)C1 (centres unmarked),-1.77%
12,CNc1c(NC(=O)c2ccccc2OC)c(=O)oc2ccccc12,3.99%
13,COCCOc1nc2c(c(=O)n(C)c(=O)n2C)n1C(C)c1ccccc1 (centres unmarked),1.96%
14,COc1ccc(C2=N/C(=C\c3cccc(C(F)(F)F)c3)C(=O)O2)cc1OC,6.11%
15,Cc1cc(NS(=O)(=O)c2ccc(NC(=O)COc3cc(C)c(Cl)c(C)c3)cc2)nc(C)n1,-10.2%
16,O=C(O)c1ccccc1C(=O)Nc1ccccc1C(=O)N1CCN(c2cccc(Cl)c2)CC1,-2.09%
17,CC1=Nc2ccc(C)c3nc(C)cc(c23)N1c1ccc(C)cc1,-6.49%
18,CN(C)c1ccc(NC(=O)c2cccc(N3C(=O)c4cccnc4C3=O)c2)cc1,-0.171%
19,Cc1ccc(N(CC(=O)Nc2ccc3c(c2)OCO3)S(C)(=O)=O)cc1C,-4.53%
20,CCn1c2ccccc2c2cc(CN3CCC(O)(c4ccc(Br)cc4)CC3)ccc21,-3.6%
21,O=C(NCc1ccco1)c1cnn2c1NC(c1ccccc1)CC2C(F)(F)F (centres unmarked),-3.49%
22,CCOc1ccc(Br)cc1C1C(C#N)=C(N)Oc2[nH]nc(C)c21 (centres unmarked),-0.661%
23,CCC(C(=O)NCCc1ccc(S(N)(=O)=O)cc1)c1ccccc1 (centres unmarked),-14.1%
24,Cc1ccc(S(=O)(=O)N2CCN(CCOc3ccc(C(C)C)cc3)CC2)cc1,2.32%
25,O=C(O)c1ccc(-n2cccn2)cc1,-5.96%
26,CC1(C)CC(=O)c2c(n[nH]c2Cc2ccccc2)C1,3.99%
